Test results from the supplement of paper PMC4166925.
± gives the standard deviation of the averaged measurements. The full ranking holds about 33,000 sequences; the median of “E-score (dimensionless, -0.5 to 0.5)” is about -0.046, and the highest 2% start at about 0.36. The list shows a part of the results.

The sequences below were run on T1, SpTbr T-box DNA-binding domain (GST fusion) (assay: PBM E-score of 8-mer (E-score (dimensionless, -0.5 to 0.5)); Tbr is Tbrain of the sea star Patiria miniata (Pm) or the sea urchin Strongylocentrotus purpuratus (Sp); higher = stronger binding preference; most listed sequences are background and not binding sites). Conditions: the construct has about 5 more residues each side.
T1 sequence: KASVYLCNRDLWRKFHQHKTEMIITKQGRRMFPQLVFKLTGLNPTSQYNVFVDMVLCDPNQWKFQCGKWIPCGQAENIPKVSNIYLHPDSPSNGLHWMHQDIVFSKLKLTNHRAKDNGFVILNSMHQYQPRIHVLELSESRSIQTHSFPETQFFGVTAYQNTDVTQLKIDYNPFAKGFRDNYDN
Procedure, shortened: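 GST-fused Tbr T-box DNA-binding domains (the whole T-box plus about five flanking residues) were expressed in BL21 E. coli at 20 °C and purified by glutathione affinity chromatography. Universal Agilent oligonucleotide arrays were made double-stranded by primer extension, incubated with 200 nM protein in PBS (pH 7.5), then scanned and quantified. Every ungapped 8-mer was scored from probe intensities. The Universal PBM Analysis Suite gave each word an enrichment E-score, averaged over duplicate arrays.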

Row | Sequence | PBM E-score of 8-mer
1 | ATTATACG | -0.105 ± 0.025
2 | GGCTCGTA | -0.2 ± 0.0094
3 | CCAGACAA | -0.178 ± 0.023
4 | TACTACGA | 0.0144 ± 0.01
5 | TAACCCGA | -0.134 ± 0.037
6 | TCCTCTAA | -0.247 ± 0.059
7 | TAGGGTGA | 0.0372 ± 0.046
8 | CTACCCTA | 0.064 ± 0.011
9 | CTGAAGAC | 0.0449 ± 0.039
10 | CCGAGTAA | -0.121 ± 0.03
11 | GGTCACAC | 0.46 ± 0.013
12 | ACGACTTA | 0.0982 ± 0.025
13 | GACTGCAC | -0.171 ± 0.027
14 | AAGGGATC | -0.0948 ± 0.076
15 | CGGAGATA | 0.0372 ± 0.0019
16 | AGGAGCTA | -0.1076 ± 0.00074
17 | AGTCCAGA | -0.161 ± 0.024
18 | ATCCCGTA | -0.0249 ± 0.063
19 | CAGCACCG | 0.0405 ± 0.025
20 | ACAAATAC | 0.00549 ± 0.1
21 | ATCGGGAC | -0.213 ± 0.022
22 | CGTCTCCA | -0.21 ± 0.017

Row | Sequence | PBM E-score of 8-mer
23 | CGCAAATA | -0.00213 ± 0.081
24 | CCCTCACC | 0.245 ± 0.049
25 | GGGCGTCA | 0.376 ± 0.017
26 | GCCGCCAA | 0.197 ± 0.016
27 | GATTTCAC | 0.332 ± 0.023
28 | ACGAAATC | 0.034 ± 0.072
29 | GAACATGC | -0.0884 ± 0.025
30 | CAATCGCC | 0.016 ± 0.078
31 | AGCGATCG | 0.0673 ± 0.027
32 | ATCAGCAC | 0.222 ± 0.051
33 | AATTCAAT | -0.13 ± 0.03
34 | AGTCGAAC | -0.0231 ± 0.03
35 | ACCCAATA | -0.101 ± 0.017
36 | AGCGCTGC | -0.00503 ± 0.035
37 | CAACACAA | 0.172 ± 0.046
38 | ATAACATG | 0.0164 ± 0.08
39 | GCGCGGCC | 0.0312 ± 0.075
40 | ACGCCCTG | 0.1 ± 0.043
41 | CATGCGCA | 0.0447 ± 0.0094
42 | AATGGGCT | -0.0148 ± 0.1
43 | TGGGGTAA | -0.1604 ± 0.001
44 | CCGACGCA | -0.12 ± 0.091

Row | Sequence | PBM E-score of 8-mer
45 | AACCGGAA | -0.0908 ± 0.02
46 | AAGAGGGG | -0.0371 ± 0.042
47 | CCGCGTCG | -0.113 ± 0.076
48 | GCTTTAAA | -0.0638 ± 0.0097
49 | GATAATAC | -0.18 ± 0.095
50 | ATACATAT | 0.00895 ± 0.052
51 | AATGTAAG | -0.0885 ± 0.01
52 | ACGCAGGA | -0.197 ± 0.052
53 | AGAGGGCA | -0.0956 ± 0.073
54 | GCGCCCAC | 0.238 ± 0.098
55 | ACGAAACT | 0.133 ± 0.0054
56 | ATTCGTCC | -0.226 ± 0.013
57 | ATATACGA | -0.294 ± 0.066
58 | CGCAGCGC | 0.0713 ± 0.046
59 | ATAGCGAC | 0.191 ± 0.0099
60 | ACATGTCT | 0.117 ± 0.05
61 | AAAGTGAG | 0.217 ± 0.0053
62 | AAGCAACG | 0.0438 ± 0.048
63 | GAACCGCA | -0.00701 ± 0.015
64 | AACCTAGA | -0.042 ± 0.1
65 | ATGACTGA | -0.135 ± 0.071
66 | CTAGTGGA | -0.0602 ± 0.015

Row | Sequence | PBM E-score of 8-mer
67 | AATGCTAC | -0.187 ± 0.1
68 | CGCATTCA | 0.0689 ± 0.063
69 | GTCTCTTA | -0.347 ± 0.015
70 | CCGCAACA | 0.0118 ± 0.013
71 | CGCATCAG | 0.0129 ± 0.043
72 | CCGTTCTA | -0.13 ± 0.032
73 | CGCGCCAA | 0.276 ± 0.0051
74 | TGAAGGAA | -0.165 ± 0.12
75 | ACGGGTCG | -0.00861 ± 0.033
76 | ATATCACC | 0.263 ± 0.018
77 | ATTTAATG | -0.17 ± 0.084
78 | ATGTAGCC | -0.159 ± 0.068
79 | ACATTGGA | -0.00588 ± 0.085
80 | ACGAAGCT | -0.11 ± 0.043
81 | AGAGCCGC | 0.00354 ± 0.061
82 | ATCAACCA | -0.112 ± 0.0075
83 | CCGAGCCG | -0.117 ± 0.01
84 | CCGGTTAC | -0.0168 ± 0.021
85 | ATGATCAA | -0.116 ± 0.014
86 | GGTCCTAC | -0.312 ± 0.052
87 | GCTGATCA | 0.179 ± 0.059
88 | TATTGAAA | -0.12 ± 0.12

Row | Sequence | PBM E-score of 8-mer
89 | ATTCTTGA | -0.149 ± 0.058
90 | ATTGCCCG | -0.19 ± 0.013
91 | AGCGCTGA | 0.0449 ± 0.0044
92 | CATGGCAG | -0.0797 ± 0.0087
93 | AACAACCC | 0.164 ± 0.048
94 | CTGTCCTA | -0.212 ± 0.027
95 | GATTCGTA | -0.0563 ± 0.056
96 | CATCGAAG | -0.125 ± 0.058
97 | AATTCTGG | -0.185 ± 0.043
98 | ATTCGTGC | 0.0379 ± 0.014
99 | ACTCTAAG | -0.088 ± 0.024
100 | CGATTGCA | 0.0731 ± 0.063
101 | ACTAGTCG | 0.081 ± 0.0035
102 | CCCCTTAG | -0.184 ± 0.068
103 | AAAGGCTT | -0.2 ± 0.039
104 | AATGTTGA | -0.0789 ± 0.084
105 | TGATAGAA | -0.0293 ± 0.037
106 | GATTCTTA | -0.203 ± 0.062
107 | AAGTGCTG | 0.246 ± 0.04
108 | ACTCATTC | 0.0654 ± 0.058
109 | GTATATTA | -0.129 ± 0.14
